The antibiotic and cytotoxicity screens of Wong et al. (2023)
The list shows a part of the results.

tested on: S. aureus RN4220; experiment: growth inhibition call (relative growth <= 0.2); conditions: 50 µM

Growth inhibition call, inactive:
C=CCNC(=O)[C@H]1[C@@H]2C(=O)O[C@@H](c3ccccc3)[C@@H](c3ccccc3)N2[C@@H](c2ccc(O)cc2)[C@]12C(=O)Nc1ccc(C#Cc3ccc(OC)cc3)cc12
CCOC(=O)CCCCCC(=O)Nc1ccc2c(c1)C(=O)N([C@@H](C)CO)C[C@@H](C)[C@H](CN(C)C(=O)Nc1ccccc1)OCCCC[C@H](C)O2
CN1C(=O)c2cc(NC(=O)c3cnccn3)ccc2OC[C@@H]2O[C@H](CC(=O)N[C@H]3CCN(Cc4ccccc4)C3)CC[C@@H]21
C[C@@H]1CCCCO[C@H](CN(C)C(=O)Nc2ccc(F)cc2)[C@H](C)CN([C@@H](C)CO)C(=O)c2cc(NC(=O)CCCN(C)C)ccc2O1
CC(C)(C)[C@H]1COC(=O)[C@@H](NC(=O)OCC2c3ccccc3-c3ccccc32)CC=CC[C@@H](CC(=O)N[C@H](CO)Cc2ccccc2)C(=O)N1
C[C@H]1CN([C@@H](C)CO)C(=O)Cc2cc(NC(=O)CCN3CCOCC3)ccc2O[C@@H]1CN(C)C(=O)Nc1ccc(F)cc1
C[C@@H]1CCCCO[C@H](CN(C)Cc2ccc(C(=O)O)cc2)[C@H](C)CN([C@H](C)CO)C(=O)c2cc(NC(=O)Nc3ccc4c(c3)OCO4)ccc2O1
C[C@H](CO)N1C[C@H](C)[C@H](CN(C)C(=O)Nc2ccc(N3CCCCC3)cc2)OCc2cnnn2CCCC1=O
C[C@@H]1CCCCO[C@H](CN(C)C(=O)Nc2ccc3c(c2)OCO3)[C@H](C)CN([C@@H](C)CO)C(=O)c2cc(NC(=O)Cc3ccccc3)ccc2O1
CN1C(=O)c2cc(NC(=O)Cc3cccs3)ccc2OC[C@@H]2O[C@@H](CC(=O)NCCc3ccncc3)CC[C@H]21
C=CCOC(=O)[C@@H]1[C@H]2C(=O)O[C@H](c3ccccc3)[C@H](c3ccccc3)N2[C@H](c2ccc(OCCOC(=O)[C@@H]3C[C@@H]4C(=O)NCC(=O)N4[C@@H]3c3ccc(O)cc3)cc2)[C@@]12C(=O)Nc1ccc(I)cc12
COc1ccc(S(=O)(=O)Nc2ccc3c(c2)CC(=O)N([C@H](C)CO)C[C@@H](C)[C@@H](CN(C)S(=O)(=O)c2ccc(C)cc2)O3)cc1
O=C1CNC(=S)N1c1ccccc1
CO[C@H]1CN(C)C(=O)c2ccc(NC(=O)c3ccc(F)cc3)cc2OC[C@H](C)N(C(=O)CN(C)C)C[C@@H]1C
Cc1ccc(S(=O)(=O)Nc2cccc3c2O[C@@H](CN(C)S(=O)(=O)c2ccccc2)[C@H](C)CN([C@H](C)CO)C3=O)cc1
C[C@@H]1CCCCO[C@H](CN(C)C(=O)C2CCCCC2)[C@@H](C)CN([C@H](C)CO)C(=O)c2cc(NC(=O)Nc3ccc4c(c3)OCO4)ccc2O1
C[C@@H]1O[C@@H](O[C@@H]2[C@@H](O)[C@H](C)O[C@@H](OC[C@H]3O[C@@H](Oc4c(-c5ccc(O)c(O)c5)oc5cc(O)cc(O)c5c4=O)[C@@H](O)[C@@H](O)[C@@H]3O)[C@@H]2O)[C@H](O)[C@H](O)[C@H]1O
CC(Oc1c(Cl)cccc1Cl)C1=NCCN1.Cl (stereo not given)
C[C@@H]1CN([C@@H](C)CO)C(=O)c2cc(NS(=O)(=O)c3cn(C)cn3)ccc2O[C@@H](C)CCCCO[C@@H]1CN(C)C(=O)Nc1cccc2ccccc12
N#CCSc1ncnc2c1cnn2CCO
COc1ccc(S(=O)(=O)Nc2ccc3c(c2)C(=O)N([C@H](C)CO)C[C@H](C)[C@@H](CN(C)C(=O)NC(C)C)O3)cc1
COc1cccc(S(=O)(=O)N(C)C[C@H]2Oc3ncc(-c4cccc(C(=O)N(C)C)c4)cc3C(=O)N([C@H](C)CO)C[C@H]2C)c1
O=C(C[C@H]1CC[C@H]2[C@@H](COC[C@H](O)CN2S(=O)(=O)c2ccc(Oc3ccccc3)cc2)O1)NCCN1CCCCC1
OC[C@@H]1CC[C@@H]2O[C@H](CCc3ccc(C#Cc4ccccc4)cc3)[C@@H](n3cc(-c4ccccc4)nn3)C[C@@H]2O1
C[C@@H]1O[C@@H](O[C@@H]2[C@@H](O)[C@H](OCCc3ccc(O)c(O)c3)O[C@H](CO)[C@H]2O)[C@H](O)[C@H](O)[C@H]1O
C[C@@H]1CCCCO[C@H](CN(C)C(=O)CCC(F)(F)F)[C@H](C)CN([C@@H](C)CO)C(=O)c2cc(NC(=O)Nc3ccc4c(c3)OCO4)ccc2O1
C[C@H](CO)N1C[C@H](C)[C@H](CN(C)S(C)(=O)=O)Oc2ccc(NS(=O)(=O)c3ccc(F)cc3)cc2CC1=O
Nc1ncnc(N[C@H]2CCS(=O)(=O)C2)c1[N+](=O)[O-]
C[C@@H]1CN([C@@H](C)CO)C(=O)c2cccc(NC(=O)C3CCOCC3)c2O[C@@H]1CN(C)S(=O)(=O)c1cn(C)cn1
COc1ccc(NC(=O)Nc2ccc3c(c2)C(=O)N([C@@H](C)CO)C[C@H](C)[C@H](CN(C)S(=O)(=O)c2cccs2)OCCCC[C@@H](C)O3)cc1
Cc1noc(C)c1NC(=O)Nc1ccc2c(c1)C(=O)N([C@@H](C)CO)C[C@@H](C)[C@@H](CN(C)S(=O)(=O)c1ccc(Cl)cc1)OCCCC[C@@H](C)O2
COC(=O)[C@@H]1[C@@H](c2ccc(OC)cc2)[C@H](C(=O)OC)S(=O)(=O)CS1(=O)=O
CCCCCCO[C@H](C)c1c(c/2[nH]c1/C=C/1\N=C(/C=C/3\NC4=C(CC(=O)C4=C3C)C3=N/C(=C2)[C@@H](C)[C@@H]3CCC(=O)O)C(=C1C)CC)C
CNC(=O)CN1CCO[C@H]2CN(C(=O)c3cnccn3)C[C@@H]21
CN1C(=O)N(C)[C@H]2NC(=O)N[C@@H]21
CC(C)N1[C@@H]2OC(C3O[C@H]4[C@H](O3)N(C(C)C)S(=O)(=O)N4C(C)C)O[C@@H]2N(C(C)C)S1(=O)=O (stereo not given in full)
COc1ccc(NC(=O)Nc2cccc3c2O[C@@H](CN(C)Cc2ccc(C(F)(F)F)cc2)[C@H](C)CN([C@@H](C)CO)C3=O)cc1
CCCC(=O)Nc1ccc2c(c1)C(=O)N(C)C[C@@H](OC)[C@H](C)CN(Cc1cc(-c3ccccc3)on1)[C@H](C)CO2
COCC(=O)Nc1ccc2c(c1)C(=O)N(C)C[C@@H](OC)[C@H](C)CN(Cc1ccccc1C(=O)O)[C@H](C)CO2
CN(/N=C/c1ccncc1)C1=NCCN1
